Screen size: about 310,000 compounds; about 14,000 (4.5%) showed an effect of 50% or more. The effect is printed as a negative number. This is one part of the list.
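Note: peak tail current of the secondary pulse compared with the same well before compound.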

human ether-à-go-go-related gene (hERG) potassium channel, sequence (Q12809 whole entry, looked up): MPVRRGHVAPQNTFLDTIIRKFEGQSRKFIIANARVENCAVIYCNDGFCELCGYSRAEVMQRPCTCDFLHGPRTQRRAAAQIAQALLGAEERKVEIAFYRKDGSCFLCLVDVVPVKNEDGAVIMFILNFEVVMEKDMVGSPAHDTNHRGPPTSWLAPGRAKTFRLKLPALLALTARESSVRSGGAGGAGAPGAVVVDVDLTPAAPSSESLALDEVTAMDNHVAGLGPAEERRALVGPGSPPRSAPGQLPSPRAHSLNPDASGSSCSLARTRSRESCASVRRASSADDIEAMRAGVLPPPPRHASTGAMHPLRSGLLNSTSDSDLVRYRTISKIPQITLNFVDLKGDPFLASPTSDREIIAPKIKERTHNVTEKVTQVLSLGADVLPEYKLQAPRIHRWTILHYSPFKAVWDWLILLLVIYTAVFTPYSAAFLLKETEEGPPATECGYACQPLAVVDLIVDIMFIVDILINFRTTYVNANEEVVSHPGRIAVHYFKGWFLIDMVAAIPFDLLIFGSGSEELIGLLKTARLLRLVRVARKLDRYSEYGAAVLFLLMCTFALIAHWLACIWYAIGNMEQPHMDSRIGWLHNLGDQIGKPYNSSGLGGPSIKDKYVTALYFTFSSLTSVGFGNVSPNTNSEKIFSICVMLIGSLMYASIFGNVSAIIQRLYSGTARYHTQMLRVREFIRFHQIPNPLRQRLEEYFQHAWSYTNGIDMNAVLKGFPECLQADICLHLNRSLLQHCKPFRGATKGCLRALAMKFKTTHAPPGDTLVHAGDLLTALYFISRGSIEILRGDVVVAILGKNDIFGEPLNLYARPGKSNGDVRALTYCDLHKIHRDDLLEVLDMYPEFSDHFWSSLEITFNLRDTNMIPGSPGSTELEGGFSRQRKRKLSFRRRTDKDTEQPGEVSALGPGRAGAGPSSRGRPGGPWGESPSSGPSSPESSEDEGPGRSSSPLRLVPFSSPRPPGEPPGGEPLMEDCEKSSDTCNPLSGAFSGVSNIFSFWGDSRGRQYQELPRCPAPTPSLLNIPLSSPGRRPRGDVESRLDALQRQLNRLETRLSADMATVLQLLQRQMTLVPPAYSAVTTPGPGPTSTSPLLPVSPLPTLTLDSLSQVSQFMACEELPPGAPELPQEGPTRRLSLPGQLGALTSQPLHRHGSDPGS

The assay concerns the target human ether-à-go-go-related gene (hERG) potassium channel (human, UniProt Q12809). The assay can be described thus: primary screen, population patch clamp on CHO cells stably expressing hERG.
Take `Cc1ccc(-c2nnc(SCc3nc(N)nc(Nc4ccccc4C)n3)n2N)cc1`: the “hERG current change (%, negative = inhibition) at 10uM” value is reported as -20.3%.
The result for `COc1ccc(C(=O)NC(=S)NNC(=O)c2ccc3ccccc3n2)cc1` reads 28.4%; that for `Cc1ccc(NC(=O)/C(C#N)=C/c2cccs2)c(C)c1`, -3.5%; that for `COc1ccc(CNC(=O)c2cc(-c3cccs3)on2)cc1`, -2.38%.
Consider `Cc1noc(C)c1CS(=O)(=O)Cc1ccc(Cl)cc1`, for which the “hERG current change (%, negative = inhibition) at 10uM” value is recorded as 8.25%.
The result for `O=C1CCCC2=C1C(c1cccc(Br)c1)n1nc(-c3ccco3)nc1N2` (stereo not drawn) reads 7.56%.
In the case of `Cc1cccc(C)c1NC1=NC(=S)N(c2ccc(N(C)C)cc2)C1(C)C`, the “hERG current change (%, negative = inhibition) at 10uM” value turned out to be 8.36%.
The result for `O=c1c([N+](=O)[O-])cccn1Cc1ccccc1Cl` reads 6.54%; that for `CCOc1cccc(OCC)c2c(C)[n+](CC3CCCO3)c(C)c1-2.[O-][Cl+3]([O-])([O-])[O-]` (stereo not drawn), -36.9%; that for `CCOC(=O)C1=C(CC)OC(N)=C(C#N)C1c1ccc(OC)cc1OC` (stereo not drawn), -0.063%.
The result for `O=C(Oc1ccc(/C=N/NC(=O)c2ccccn2)cc1)c1ccc(Br)cc1` reads 2.54%.
Then `CCN1C(=O)CC(NNC(=O)c2ccc(Cl)cc2)C1=O` (stereo not drawn), with 7.34%; and `O=C1CN=C(c2ccccc2)c2ccccc2N1Cc1ccc(C(F)(F)F)cc1`, with -0.479%.
On to `CCN(CC)C(=O)c1ccc2c(c1)N(Cc1ccccc1)C(=O)CS2=O` (stereo not drawn), for which the “hERG current change (%, negative = inhibition) at 10uM” value came out at 4.74%.
The result for `COc1ccccc1NC(=O)CSc1nncn1-c1ccccc1` reads 3.98%; that for `Cc1ccc(/C=C2/C(=O)N=C(N)N2C)s1`, 15.5%.
Then `C=CCNC(=S)NNC(=O)c1cc(-c2cccnc2)nc2ccccc12`, with 20.1%; and `CC(=O)N1CCc2cc(S(=O)(=O)NC(C(=O)Nc3nc(C)cs3)C(C)C)ccc21` (stereo not drawn), with 8.38%.
Consider `O=C1NC(=S)NC(=O)C1C/C=C/c1ccccc1`, for which the “hERG current change (%, negative = inhibition) at 10uM” value was found to be 10.6%.
For the compound `Cc1ccc(NC(=O)CSc2nn(-c3ccc(Cl)cc3)c(=S)s2)cc1S(=O)(=O)N(C)C`, the “hERG current change (%, negative = inhibition) at 10uM” value is 18.7%.
The result for `CCN1CCN(CCCN(Cc2ccco2)C(=S)Nc2cc(Cl)ccc2C)CC1` reads -61.9%; that for `CC1Sc2ccc(S(=O)(=O)CCC(=O)N3CCc4ccccc43)cc2NC1=O` (stereo not drawn), 23.1%; that for `CCS(=O)(=O)c1nc(S(=O)(=O)c2ccc(Cl)cc2)c(N2CCc3ccccc3C2)s1`, 7.91%.
For `O=C(Nc1ccc(Cl)c([N+](=O)[O-])c1)c1ccco1`, the “hERG current change (%, negative = inhibition) at 10uM” value was determined as 7.92%.
`CN(c1ccccc1)S(=O)(=O)c1cc(C(=O)c2nccn2C)ccc1Cl`: the “hERG current change (%, negative = inhibition) at 10uM” value was -48.4%.
On to `Cc1cc(NC(=O)c2cccc([N+](=O)[O-])c2)no1`, for which the “hERG current change (%, negative = inhibition) at 10uM” value came to 11.5%.
Take `Cc1cccc(C(=O)NN2C(=O)C3C(c4ccccc4)C=CC(c4ccccc4)C3C2=O)c1` (stereo not drawn): the “hERG current change (%, negative = inhibition) at 10uM” value stood at 3.83%.
Then `O=C(COC(=O)c1cc([N+](=O)[O-])ccc1N1CCOCC1)c1ccc(F)cc1`, with -55.9%.
Then `S=C(Nc1ccccc1Cl)N1CCN(c2ccccn2)CC1`, with 19.2%; and `CC(C)NS(=O)(=O)c1ccc(CCC(=O)O)cc1`, with -11.6%.
With `CCc1ccccc1N(CC(=O)NC1CCCCC1)C(=O)CCCC(=O)Nc1ccccn1`, the “hERG current change (%, negative = inhibition) at 10uM” value is listed as -27.6%.
Then `CC[N+](CC)(CC(=O)Nc1c(C)cccc1C)Cc1ccccc1.O=C([O-])c1ccccc1`, with 14.7%.
The result for `O=C(Nc1cccc(Cl)c1Cl)c1ccc(-c2ccccc2)cc1` reads 6.92%; that for `COc1ccc(-c2[nH]nc3oc(=O)c(CCO)c(C)c23)cc1.O=C(O)C(=O)O`, 22.8%.
Then `Cc1ccc(NC(=O)CN(C)Cc2cc(=O)n3ccsc3n2)cc1`, with -7.66%; and `COc1ccc2cc(-c3nc4ccccc4n3C)c(=O)oc2c1`, with 3.68%.
For `Cc1cccc(C)c1NC(=O)CCCCCC1NC(=O)NC1C` (stereo not drawn), the “hERG current change (%, negative = inhibition) at 10uM” value was determined as 3.52%.
On to `CN(CC(=O)Nc1ccc(F)cc1)C(=O)c1cc2c(s1)CCCCC2`, for which the “hERG current change (%, negative = inhibition) at 10uM” value was 8.87%.
Then `Cc1cc(C)cc(N2C(=O)CCN(Cc3ccccc3)C2=O)c1`, with 12.9%; and `NCc1oc(-c2ccccc2)cc1C(=O)O`, with 16.6%; and `COc1ccc(C2=CC(c3c(C)nn(-c4ccccc4)c3Cl)n3nnnc3N2)cc1OC` (stereo not drawn), with 11.4%.
On to `CCN1CCc2c(OCc3ccccc3)cccc2C1=O`, for which the “hERG current change (%, negative = inhibition) at 10uM” value was -15.6%.
The result for `COC(=O)C1CCN(Cc2cn(Cc3ccccc3)nc2-c2cc3ccccc3o2)CC1` reads -75.9%; that for `CCOc1cc(CNc2ccc3cn[nH]c3c2)ccc1OC`, -1.03%; that for `COc1ccc(S(=O)(=O)N/N=C(/C)c2cccc(NC(=O)c3ccccc3Cl)c2)cc1`, -2.92%.
In the case of `CC[C@]12C=CCN3CCC4(c5cc(Br)c(OC)cc5N(C)C4[C@@](O)(C(=O)OC)[C@@H]1OC(C)=O)C32` (stereo partly drawn), the “hERG current change (%, negative = inhibition) at 10uM” value is on record as 7.6%.
The result for `Cn1c(=O)oc2cc(S(=O)(=O)Nc3cccc([N+](=O)[O-])c3)ccc21` reads 4.69%; that for `CCOC(=O)c1c(C)[nH]c(C(=O)OCC(=O)NC2CCS(=O)(=O)C2)c1C` (stereo not drawn), -1.13%; that for `O=C(CSc1nccc(-c2ccc(Br)cc2)n1)NCCc1ccccc1`, -2.48%.
Turning to `Brc1ccc2oc(-c3ccn[nH]3)cc2c1`, the “hERG current change (%, negative = inhibition) at 10uM” value is recorded as 14.8%.
`COc1ccc(-c2cc(C#N)nc(Oc3ccc(Cl)cc3)n2)cc1`: the “hERG current change (%, negative = inhibition) at 10uM” value was determined as 6.64%.
On to `COc1cc(NC(=O)COC(=O)CNC(=O)C2CCCCC2)cc(OC)c1`, for which the “hERG current change (%, negative = inhibition) at 10uM” value came out at 4.7%.
Then `NS(=O)(=O)c1ccc(NCCCn2ccnc2)c([N+](=O)[O-])c1`, with 8.43%; and `OC1(c2ccccc2)c2ccccc2-c2ncccc21` (stereo not drawn), with -3.3%; and `O=C(NC1CCCCC1)C1CCN(c2nnnn2-c2ccccc2)CC1`, with -17.9%.
The result for `COCCn1c(C)cc(C(=O)CSc2nc3ccccc3o2)c1C` reads 3.78%; that for `Cn1cnnc1SCC(=O)Nc1sc2c(c1C(N)=O)CCC2`, 1.02%; that for `Cc1ccc(S(=O)(=O)Nc2ccc(O)c3ccccc23)c(C)c1`, 4.64%.
Then `COc1ccc(Cc2nc3ccccc3n2CC(=O)N/N=C/c2ccc(C)cc2O)cc1OC`, with 4.34%; and `COc1ccccc1N1CCN(C(=O)c2ccncc2)CC1`, with -5.58%; and `Cc1ccc(-c2c(C(=O)N/N=C/c3ccc(C)o3)nnn2-c2nonc2N)cc1`, with 16.9%.
For the compound `COc1cc(OC)c(C(=O)CCCN2CCCC2)c(OC)c1.Cl`, the “hERG current change (%, negative = inhibition) at 10uM” value is -4.43%.
For the compound `COc1ccc(CNC(=O)c2ccc[nH]2)cc1Cl`, the “hERG current change (%, negative = inhibition) at 10uM” value is reported as 12.2%.
Then `COc1cccc(C2c3[nH]c4ccccc4c3C[C@H]3C(=O)N(C)CC(=O)N23)c1` (stereo partly drawn), with -24.7%.
Then `CCOC(=O)N1CCC(NC(=O)Cn2cccc2C(=O)c2ccccc2C)CC1`, with -12.3%.
For `CCCOC(=O)C(C)n1cnc2scc(-c3ccc(C)cc3)c2c1=O` (stereo not drawn), the “hERG current change (%, negative = inhibition) at 10uM” value stood at 6.79%.
`O=C(c1ccc(Cl)cc1)C(Cn1cncn1)C(Sc1ccccc1)c1ccccc1` (stereo not drawn): the “hERG current change (%, negative = inhibition) at 10uM” value is recorded as -6.65%.
Then `NC(=O)CCC(NS(=O)(=O)c1ccc(Cl)cc1)C(=O)NCc1ccc(Cl)cc1` (stereo not drawn), with 1.79%.
Turning to `COC(=O)/C(C#N)=C1/SC=C(C)N1c1ccccc1`, the “hERG current change (%, negative = inhibition) at 10uM” value is listed as -1.79%.
Turning to `CCCCC(=O)c1ccc(O)cc1`, the “hERG current change (%, negative = inhibition) at 10uM” value is reported as -30.6%.
Then `O=C(Nc1nc(-c2ccc3c(c2)OCCO3)cs1)c1ccc(S(=O)(=O)N2CCCCC2)cc1`, with 18%; and `O=C(CSc1nnc(-c2cccnc2)n1CCc1ccccc1)NCc1ccccc1`, with -10.9%.
For `COc1ccc(COCCN2CCN(S(=O)(=O)c3ccccc3)CCC2=O)cc1`, the “hERG current change (%, negative = inhibition) at 10uM” value is on record as -12.5%.
For the compound `COC(=O)c1ccccc1NC(=O)C1CCCN(S(=O)(=O)c2ccccc2)C1` (stereo not drawn), the “hERG current change (%, negative = inhibition) at 10uM” value is on record as -39.2%.
For the compound `O=C(O)CNC(=S)N(Cc1ccccc1F)C1CCCCC1`, the “hERG current change (%, negative = inhibition) at 10uM” value is on record as 0.581%.
On to `O=C(/C=C/c1cccc(Cl)c1)NCCc1ccccc1`, for which the “hERG current change (%, negative = inhibition) at 10uM” value was -5.75%.
With `CCOc1ccc(C(=O)N2CCCN(C(=O)c3ccc(OCC)cc3)CC2)cc1`, the “hERG current change (%, negative = inhibition) at 10uM” value is listed as -71.8%.
On to `CCc1nnc(NC(=O)CCC(=O)N2CCC(Cc3ccccc3)CC2)s1`, for which the “hERG current change (%, negative = inhibition) at 10uM” value is reported as -10.8%.
The result for `COc1ccc(NC(=O)Nc2c(SC)nsc2SC)cc1` reads 19.3%.
Then `COc1ccccc1N1C(=O)C(=O)N(C)C1=O`, with 19.4%; and `CCN(C(=O)COC(=O)Cc1ccc(F)cc1)c1c(N)n(Cc2ccccc2)c(=O)[nH]c1=O`, with 2.46%.
The result for `Cc1ccc(OCC(=O)OCC(=O)c2c(N)n(C)c(=O)n(C)c2=O)cc1C` reads -17.7%; that for `Cc1occc1-c1nnc(SCC(=O)c2c[nH]c3ccccc23)n1C`, 6.07%.
On to `CCOC(=O)CNC(=O)CSc1nnc(COc2ccc(Cl)cc2)n1CC`, for which the “hERG current change (%, negative = inhibition) at 10uM” value is -5.31%.
The result for `Cc1ccc(S(=O)(=O)N(CC(=O)c2ccc(Cl)cc2)C(=O)N2CCN(C)CC2)cc1` reads 20.9%; that for `Cl.N=c1ccn(Cc2ccc(F)cc2)cc1`, 17%; that for `CCCCC(=O)Nc1nnc(S(=O)(=O)N(CC)c2ccccc2)s1`, 23.9%.
